Assay results as given in the supplement of paper PMC3334620.
The full ranking holds about 33,000 sequences; the median of “E-score (-0.5 to 0.5)” is about -0.01, and the highest 2% start at about 0.26. This is one part of the list.

Molecular target: Ste12 (UniProt P13574)
Experiment: PBM E-score (8-mer binding enrichment) (E-score (-0.5 to 0.5)); higher = stronger / more preferred TF binding; most listed sequences are background and not binding sites
Conditions: protein concentration: 200 nM; construct: GST-DNA-binding domain
Experimental: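 Universal 'all 10-mer' protein binding microarrays (Agilent AMADID 015681) probed with GST-tagged S. cerevisiae TFs (full-length or DBD) made by in vitro transcription/translation (PURExpress), about 100-200 nM. Bound TF was detected with fluorescent anti-GST. Each ungapped 8-mer (which stands for itself and its reverse complement) is scored by the PBM enrichment score (E-score), a modified Wilcoxon-Mann-Whitney statistic from -0.5 to +0.5, computed with the Universal PBM Analysis Suite. Scale: above 0.35 generally sequence-specific binding.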

| Sequence | PBM E-score |
| --- | --- |
| AGCCCATC | -0.145 |
| ACGACACT | -0.0852 |
| CTGCAGCA | 0.0849 |
| CGCCGCCC | 0.239 |
| CTTCAGTA | -0.0752 |
| CAGGCAAG | -0.15 |
| ACGCGCTA | 0.0584 |
| ATCTGCGC | 0.0309 |
| GCATGCAA | -0.0312 |
| TAAAACCA | 0.21 |
| CCAGGTCG | -0.15 |
| CGATCATA | 0.0637 |
| GAGGAAAA | 0.0833 |
| AACGGTCT | -0.0484 |
| AAACACTG | 0.248 |
| CAGGTCAA | -0.0358 |
| GGACGCCC | -0.152 |
| TGGTGAAA | 0.277 |
| AAGGTAGG | -0.0392 |
| GCCCGATA | -0.0773 |
| CCGCAAAG | 0.00201 |
| CACGTGAG | 0.00678 |
| GCACATAC | -0.259 |
| ACGTCTCA | 0.274 |
| ACGGTTTC | 0.2 |

| Sequence | PBM E-score |
| --- | --- |
| GATAGTTA | 0.166 |
| AATTCGAA | 0.21 |
| CTGGTCGA | -0.196 |
| AGGAGCAA | -0.108 |
| CTAGCTCA | -0.215 |
| CATGGATC | -0.0524 |
| AGTATGCC | -0.13 |
| AGGGCCAA | -0.23 |
| GAGTGGAA | -0.102 |
| CCGTCACG | 0.0664 |
| ACGTCAGC | 0.036 |
| AGCCAATC | -0.0364 |
| GCTATGAC | 0.0507 |
| ACCTAGCA | 0.113 |
| CCAAAGGC | -0.153 |
| AAGATATG | 0.156 |
| GAAGGCAA | 0.0764 |
| TCCGAGCA | 0.107 |
| AATCCAGG | -0.0109 |
| AATGCGAT | -0.0389 |
| ACAGACGA | 0.0302 |
| CGTAGTAA | -0.0683 |
| ACACAATC | 0.0762 |
| CGAGAATC | -0.128 |
| ATCGACCA | -0.0672 |

| Sequence | PBM E-score |
| --- | --- |
| AATAAGAC | -0.00658 |
| CGTCTAGC | -0.211 |
| AAGCCCGA | -0.152 |
| CCCGCCTA | 0.112 |
| GGATTAAC | 0.0387 |
| ATGAGCCA | -0.082 |
| CCCCACGC | -0.135 |
| CGCCGCTC | -0.00968 |
| ATGATATC | -0.0249 |
| CAGACGGG | -0.0516 |
| AGGATTGC | -0.025 |
| AAATCCCG | 0.0351 |
| CAGGGATC | -0.123 |
| GACAAATA | 0.114 |
| AGGACTCG | -0.268 |
| TGATTGCA | 0.00814 |
| ACCCGCAC | 0.00611 |
| AGACGTTA | -0.0587 |
| GACCTTGA | -0.00516 |
| AGGTAGGG | -0.0244 |
| AAACATCA | 0.328 |
| AGAATTCC | 0.189 |
| ATCGGCTC | -0.123 |
| ACTTCGAG | 0.0994 |
| GGTGCCAA | -0.00466 |

| Sequence | PBM E-score |
| --- | --- |
| ACACTTGG | -0.0856 |
| AAGTTCGG | -0.0616 |
| AAGAGATG | 0.0742 |
| CTGGACCA | -0.0242 |
| CACTATTC | 0.0168 |
| CATGCACG | -0.212 |
| AAGGATGA | 0.0364 |
| GCTACAAA | 0.0903 |
| ACGTTGAA | 0.0985 |
| ATGCAACC | 0.0477 |
| TGTCAGAA | 0.107 |
| AAGCATTA | -0.0548 |
| AATATTGA | 0.187 |
| TCTCAGAA | 0.0441 |
| CAATGCGC | 0.0832 |
| TGGGAAAA | 0.141 |
| TCAAGTGA | -0.0459 |
| CTACGGGC | -0.225 |
| CCTCATCC | 0.112 |
| CAGGTAGC | -0.26 |
| ACACCGTA | -0.0259 |
| ACTTCGCA | -0.0371 |
| ATCATCAC | 0.12 |
| CCGTAGCG | -0.0386 |
| TAATTGTA | 0.232 |

| Sequence | PBM E-score |
| --- | --- |
| AGAACCTC | -0.112 |
| CTGGGGAA | -0.235 |
| ACTAACAA | 0.0251 |
| TCCAACAA | -0.0926 |
| TAGTAGGA | -0.0533 |
| GCTTTGAC | 0.0316 |
| ACCGGGCC | -0.0251 |
| ACCGACAC | -0.114 |
| AGGTATAC | -0.0236 |
| GACGTATC | -0.0828 |
| CAATCTCG | -0.07 |
| AAGGACGA | -0.0886 |
| ATGCTCCA | 0.0506 |
| GAATTCGC | 0.0223 |
| AAAAGAGG | -0.114 |
| CGACGCCG | 0.123 |
| GCAAACGC | 0.114 |
| AGATGACT | -0.0593 |
| AATATTCG | -0.0132 |
| AGGCCTCG | -0.181 |
| GACGTGCA | -0.117 |
| CCCTACCC | -0.038 |
| AGCCTACT | -0.155 |
| CCTACGCA | -0.236 |
| GCCATCAA | -0.106 |

| Sequence | PBM E-score |
| --- | --- |
| CGTCTTCC | 0.0142 |
| TAACTTGA | 0.0401 |
| AACCTCGC | -0.0929 |
| CCCTCCAG | 0.153 |
| GACCGAGA | 0.054 |
| GTTGCCGA | 0.125 |
| AAGCGTCG | -0.123 |
| ATCGTCCC | 0.0346 |
| AATATAAT | 0.138 |
| CCGACGAC | 0.0401 |
| ACCACAAA | 0.193 |
| CCTTAGAC | 0.00298 |
| AGGCAGCA | 0.0458 |
| AAGGTGAT | 0.0331 |
| CGTGCCAG | -0.218 |
| CTCCATTA | 0.0478 |
| ACCAAATA | 0.151 |
| CGCCACGA | 0.0187 |
| GCCTGCAC | -0.209 |
| ACGCGGGA | 0.0285 |
| ACTTTGTG | -0.0599 |
| GTTACATA | 0.215 |
| CGTCTACA | -0.157 |
| AACGGATG | 0.0467 |
| GTTCGGTA | 0.0162 |

| Sequence | PBM E-score |
| --- | --- |
| TGGCCGAA | 0.0844 |
| CTCTCATA | -0.0984 |
| CCAACATA | 0.149 |
| CAAGTCTG | -0.0972 |
| CCCTAAGC | -0.147 |
| CGTGCGCA | 0.0233 |
| CAGGGTGA | -0.104 |
| CGATGCTA | -0.0117 |
| CATGACAC | 0.176 |
| CAGCATTC | -0.0383 |
| ATCTGAAC | -0.0162 |
| ACTTCTGG | -0.0906 |
| AGTCGCTC | -0.14 |
| CGATGCTC | -0.0221 |
| TCACTGCA | 0.0135 |
| TAAACGGA | 0.126 |
| AGCCACAG | -0.256 |
| GAAGTAGA | -0.129 |
| ACAAGCAT | 0.059 |
| ATGCTGAC | 0.00523 |
| ACAAAAAG | 0.125 |
| CCCCTACC | 0.0111 |
| CAATTCCA | 0.17 |
| ATCTACAC | 0.0258 |
| CCCGATAG | 0.0566 |

| Sequence | PBM E-score |
| --- | --- |
| ACTTTGTA | 0.0194 |
| CGGCCTAC | -0.0855 |
| CGTTATGC | -0.0583 |
| CTTACTGA | -0.0791 |
| CCCTACTA | -0.149 |
| GATATGTA | 0.0692 |
| CAGCAAAC | 0.0674 |
| CATTGAAG | -0.0309 |
| TTAGCGAA | 0.118 |
| CGGCTCGC | 0.0418 |
| AATAAGAT | 0.00235 |
| TAGCGTGA | 0.0157 |
| TGGGTACA | -0.0266 |
| ATCATTTG | 0.0263 |
| GGGTAATA | 0.109 |
| ACTTTTAT | 0.125 |
| CGATACGA | -0.184 |
| AACCAGAA | 0.0614 |
| GAAAGTGA | -0.111 |
| ACTAGGAC | -0.151 |
| AACTCTGA | 0.193 |
| AGATCTTG | 0.0474 |
| AGCGCAAT | 0.012 |
| CTGAATTA | 0.116 |
| CTGCTAGC | -0.206 |

| Sequence | PBM E-score |
| --- | --- |
| AAATTACT | 0.107 |
| CCGACCAC | 0.117 |
| ATTGTCTG | 0.128 |
| ATGGTCGG | 0.098 |
| AGTACCGC | 0.0363 |
| GTGCACAA | -0.159 |
| AAGTCCGT | -0.253 |
| GGTTTAAA | 0.211 |
| ACGTCGAA | 0.13 |
| CAGAAAGC | 0.104 |
| CAATATAG | 0.117 |
| CTGCACTA | -0.0597 |
| AGGCATAA | 0.00844 |
| AATAATTG | 0.18 |
| CAAGCACA | -0.12 |
| ACCTCCGC | -0.00893 |
| CAGACCAA | -0.0983 |
| CAAGGTTA | -0.0446 |
| ATAACGAA | 0.0476 |
